# The whole screen tested about 360,000 compounds, of which about 16,000 (4.4%) were called active. This list was built around the results that the source calls inconclusive (neither active nor inactive); the mix of calls is not that of the screen. The call rests on the fitted dose curve; in most records, active means well fitted inhibition curve with a large enough effect; inconclusive means small, poorly fitted or top-dose-only effect; inactive means no such curve, though single readings can be large or run the other way. Where the call is inconclusive, the potency comes from a doubtful curve fit.
# Target: Bromodomain adjacent to zinc finger domain protein 2B (Homo sapiens) (UniProt Q9UIF8)
# Test: qHTS Assay for Inhibitors of BAZ2B; further: nearly all actives have a fitted effect of over 60% in size
# Settings: AlphaScreen BAZ2B-H3K14Ac peptide displacement; activity change, negative = inhibition: at 114 µM (top of the series)
# Procedure, shortened: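 AlphaScreen displacement of biotin-H3(5-23)K14Ac peptide (50 nM final) from BAZ2B (50 nM final) in PBS pH 7.4, 0.01% Tween-20; complex preformed 30 min RT, then compounds (top 110 uM) 30 min RT, beads 20 min dark.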
# On the % scale 0 is the no-effect control and ±100 the full control effect; potency means the concentration at half of the fitted maximal effect; tags describe the fitted curve by direction and shape.
# UniProt Q9UIF8, sequence (Q9UIF8 whole entry, looked up, the tested form may be a part): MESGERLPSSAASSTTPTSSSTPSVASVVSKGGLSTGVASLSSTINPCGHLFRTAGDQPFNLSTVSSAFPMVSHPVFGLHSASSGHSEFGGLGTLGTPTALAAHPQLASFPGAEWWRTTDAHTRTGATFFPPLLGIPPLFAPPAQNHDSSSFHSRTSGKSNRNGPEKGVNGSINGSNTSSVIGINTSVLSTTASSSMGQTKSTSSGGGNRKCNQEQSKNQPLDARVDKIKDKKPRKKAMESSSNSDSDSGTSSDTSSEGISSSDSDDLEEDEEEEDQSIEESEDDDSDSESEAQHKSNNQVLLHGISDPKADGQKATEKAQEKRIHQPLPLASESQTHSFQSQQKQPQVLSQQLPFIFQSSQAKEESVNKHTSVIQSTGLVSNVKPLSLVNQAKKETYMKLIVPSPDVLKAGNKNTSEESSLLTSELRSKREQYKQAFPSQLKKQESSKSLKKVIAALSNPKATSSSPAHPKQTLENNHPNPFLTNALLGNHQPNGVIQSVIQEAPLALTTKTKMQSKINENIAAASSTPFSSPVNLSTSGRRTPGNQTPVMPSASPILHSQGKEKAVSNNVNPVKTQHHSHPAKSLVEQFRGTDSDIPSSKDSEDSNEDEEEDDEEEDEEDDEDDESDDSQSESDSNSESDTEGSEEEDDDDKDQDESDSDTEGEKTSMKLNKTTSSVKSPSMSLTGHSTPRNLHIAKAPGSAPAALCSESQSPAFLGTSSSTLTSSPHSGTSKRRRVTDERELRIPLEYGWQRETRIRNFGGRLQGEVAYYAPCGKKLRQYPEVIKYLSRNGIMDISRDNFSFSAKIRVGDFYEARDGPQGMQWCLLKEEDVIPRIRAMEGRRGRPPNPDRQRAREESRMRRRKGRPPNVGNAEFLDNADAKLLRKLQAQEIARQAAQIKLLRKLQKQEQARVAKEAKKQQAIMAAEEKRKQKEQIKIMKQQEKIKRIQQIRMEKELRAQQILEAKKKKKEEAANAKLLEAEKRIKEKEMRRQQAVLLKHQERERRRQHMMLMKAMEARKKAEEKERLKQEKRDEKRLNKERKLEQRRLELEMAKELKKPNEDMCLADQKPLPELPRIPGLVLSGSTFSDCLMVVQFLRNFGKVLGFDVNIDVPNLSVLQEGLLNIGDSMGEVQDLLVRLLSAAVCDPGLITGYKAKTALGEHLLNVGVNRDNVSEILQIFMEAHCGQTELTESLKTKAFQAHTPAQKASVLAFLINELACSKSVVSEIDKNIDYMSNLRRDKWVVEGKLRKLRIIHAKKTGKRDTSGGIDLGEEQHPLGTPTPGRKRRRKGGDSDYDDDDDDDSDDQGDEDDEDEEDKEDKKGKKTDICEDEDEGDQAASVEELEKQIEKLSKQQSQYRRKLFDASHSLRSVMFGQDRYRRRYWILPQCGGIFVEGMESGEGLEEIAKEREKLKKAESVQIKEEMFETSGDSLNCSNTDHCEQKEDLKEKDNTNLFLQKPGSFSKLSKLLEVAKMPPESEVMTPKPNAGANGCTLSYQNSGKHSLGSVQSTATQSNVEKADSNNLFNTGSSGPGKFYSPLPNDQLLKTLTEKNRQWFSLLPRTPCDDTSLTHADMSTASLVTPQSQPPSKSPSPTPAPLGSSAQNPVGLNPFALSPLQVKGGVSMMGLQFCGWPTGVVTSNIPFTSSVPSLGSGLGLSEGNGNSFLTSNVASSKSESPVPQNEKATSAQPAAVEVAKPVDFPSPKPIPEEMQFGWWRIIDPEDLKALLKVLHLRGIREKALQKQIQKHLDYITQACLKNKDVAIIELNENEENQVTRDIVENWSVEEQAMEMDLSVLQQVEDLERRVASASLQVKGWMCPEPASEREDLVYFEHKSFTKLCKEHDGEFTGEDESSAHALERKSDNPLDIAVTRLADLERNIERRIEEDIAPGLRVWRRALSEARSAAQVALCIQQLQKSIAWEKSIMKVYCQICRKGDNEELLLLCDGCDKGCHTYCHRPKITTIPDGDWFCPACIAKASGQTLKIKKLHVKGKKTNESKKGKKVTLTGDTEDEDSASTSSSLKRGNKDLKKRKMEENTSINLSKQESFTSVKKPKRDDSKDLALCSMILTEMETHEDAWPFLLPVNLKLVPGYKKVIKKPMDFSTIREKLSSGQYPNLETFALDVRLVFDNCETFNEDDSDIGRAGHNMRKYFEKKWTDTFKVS
SMILES,Potency,"activity change, negative = inhibition"
CN(C)/N=C/c1ccc(Sc2ccc([N+](=O)[O-])cc2[N+](=O)[O-])o1,"inconclusive: 7.94 µM [inhibitor, full curve]",–
COc1ccccc1C(=O)Nc1cc(-c2cccc(Br)c2)nn1-c1ccccc1,–,inactive: 9.23%
C=CCc1cccc(/C=N/c2ncccc2O)c1O,"inconclusive: 56.2 µM [inhibitor, partial curve]",–
COc1ccccc1N1CCN(C(c2cc3ccc(C)cc3[nH]c2=O)c2nnnn2C2CCCC2)CC1 (stereo unspecified),"inconclusive: 50.1 µM [inhibitor, partial curve]",–
O=S(=O)(c1ccccc1)N1N=C(c2cccs2)CC1c1cccc(O)c1 (stereo unspecified),"inconclusive: 44.7 µM [inhibitor, partial curve]",–
O=C(c1ccccc1F)N1CCN(c2ccc([N+](=O)[O-])c(N3CCOCC3)c2)CC1,"inconclusive: 56.2 µM [inhibitor, partial curve]",–
CCS(=O)(=O)N1CCN(c2ccc([N+](=O)[O-])c(NCc3ccccc3)c2)CC1,"inconclusive: 56.2 µM [inhibitor, single point]",–
c1ccc2c(c1)nc(NCCN1CCOCC1)c1nncn12,–,inactive: 11.6%
Cc1cccc2cc(CN(Cc3ccco3)C(=O)NC3CCCCC3)c(=O)[nH]c12,"inconclusive: 70.8 µM [inhibitor, single point]",–
CCN(CC)c1ccc(NC(=O)c2cc(CN3CCCC3)on2)c(C)c1,"inconclusive: 44.7 µM [inhibitor, partial curve]",–
COc1cc(Br)cc(CN2CCN(C/C=C/c3ccccc3)CC2)c1O,active: 39.8 µM,–
O=C(N1CCN(c2ccc(F)cc2)CC1)C1(c2cccs2)CCOCC1,–,inactive: -11.3%
COc1cc(/C=N/NC(=O)c2cccnc2)cc(Br)c1O,"inconclusive: 89.1 µM [inhibitor, single point]",–
COc1ccc(C2OCC3(CO2)SC(N)=NC3=O)cc1 (stereo unspecified),"inconclusive: 89.1 µM [inhibitor, single point]",–
Cc1cc(C)cc(NC(=O)C(Cc2ccccc2)N2Cc3ccccc3C2=O)c1 (stereo unspecified),–,inactive: 1.35%
CN(C)C1=NC[C@H](Cc2ccccc2)N1CCCC1CCCC1,"inconclusive: 89.1 µM [inhibitor, single point]",–
O=[N+]([O-])c1ccc(N2CCN(C(=S)NCc3ccc(Cl)cc3)CC2)cc1,"inconclusive: 8.91 µM [inhibitor, full curve, poor fit]",–
Cc1ccc(C(=O)Nc2nc3ccccc3c(=O)s2)cc1,"inconclusive: 89.1 µM [inhibitor, single point]",–
COc1ccccc1NC(=S)N(CCCN1CCOCC1)Cc1cn(C)c2ccccc12,"inconclusive: 79.4 µM [inhibitor, single point]",–
COc1ccc(C(=O)CCC(=O)Nc2ccc(N3CCCCC3)cc2)cc1OC,active: 35.5 µM,–
FC(F)(F)c1cccc(CN2CCSCC2)c1,active: 56.2 µM,–
COc1ccc(N=Cc2cc(Cc3ccccc3Cl)cc([N+](=O)[O-])c2O)cc1OC,"inconclusive: 50.1 µM [inhibitor, partial curve]",–
O=C(N/N=C/c1ccccc1)c1ccco1,–,inactive: -2.91%

SMILES,Potency,"activity change, negative = inhibition"
Fc1ccccc1Cn1nnc2c(-n3ccnc3)ncnc21,–,inactive: 2.05%
Cc1ccc(NC2=CC(=O)C(=O)c3ccccc32)cc1,active: 39.8 µM,–
Cc1ccc2[nH]cc(CCCN3C(=O)c4ccccc4C3=O)c2c1,"inconclusive: 44.7 µM [inhibitor, partial curve]",–
COC(=O)CCCC1=CC2=C(c3ccccc3)C(=O)C(C)(OC(=O)C3CCCC3)C(=O)C2=CN1CC(C)C (stereo unspecified),"inconclusive: 50.1 µM [inhibitor, partial curve]",–
Nc1nc(NC(=O)/C=C/c2ccccc2)nn1-c1ccccc1,"inconclusive: 79.4 µM [inhibitor, single point]",–
Cn1cccc1/C=N/NC(N)=S,"inconclusive: 50.1 µM [inhibitor, partial curve]",–
COc1ccc(OCC(=O)Nc2ccc3c(c2)n(C)c(=O)n3C)cc1,"inconclusive: 89.1 µM [inhibitor, single point]",–
O=C(N/N=C/c1cccc([N+](=O)[O-])c1)C1COc2ccccc2O1 (stereo unspecified),–,inactive: 10%
CCCC1O[C@@H]2C[C@H]3[C@@H]4CCC5=CC(=O)C=C[C@]5(C)[C@H]4[C@@H](O)C[C@]3(C)[C@]2(C(=O)CO)O1 (stereo partly specified),–,inactive: -1.55%
NC(=O)c1c(NC(=S)Nc2ccc(F)cc2)sc2c1CCCC2,–,inactive: -21.4%
NC(=O)c1c(/N=C/c2cccs2)sc2c1CCCC2,"inconclusive: 35.5 µM [inhibitor, partial curve]",–
COc1cc(C2Nc3cccc4cccc(c34)N2)cc(OC)c1O,"inconclusive: 89.1 µM [inhibitor, single point]",–
CCc1ccc(S(=O)(=O)c2nnn3c2nc(Nc2cccc(C)c2C)c2sccc23)cc1,–,inactive: -9.19%
CCOC(=O)c1c(N)sc2c1CCSC2,"inconclusive: 100 µM [inhibitor, single point]",–
Cc1nc(NC(=O)c2ccc(Cl)cc2)sc1-c1csc(Nc2cccc(F)c2)n1,–,inactive: -3.18% [at 57.1 µM]
C/C(CCC12CC3CC(CC(C3)C1)C2)=N\NC(N)=S,"inconclusive: 11.2 µM [inhibitor, full curve]",–
COc1cccc(CNc2ccc3c(c2)ncn3C)c1OC,"inconclusive: 79.4 µM [inhibitor, single point]",–
Cc1cc(C(=O)CSc2nc3ccccc3c(=O)n2C)c(C)n1CC1CCCO1 (stereo unspecified),"inconclusive: 79.4 µM [inhibitor, single point]",–
CCOC(=O)C1=C(c2ccc(OC)cc2)C(=O)c2ccccc2C1=O,active: 20 µM,–
c1coc(-c2nn3c(-c4ccco4)nnc3s2)c1,"inconclusive: 79.4 µM [inhibitor, single point]",–
CCN(CC)CCNc1nc(-c2ccc(OC)cc2)c(-c2ccc(OC)cc2)s1,"inconclusive: 70.8 µM [inhibitor, partial curve]",–
CC(C)(C)c1cc(NCCCn2ccnc2)n2ncc(-c3ccccc3)c2n1,active: 56.2 µM,–
O=C1CN(C(=O)COC(=O)/C=C/c2ccco2)c2ccccc2N1,"inconclusive: 79.4 µM [inhibitor, partial curve]",–

# From PubChem BioAssay AID504333 (National Center for Advancing Translational Sciences (NCATS), 2011)
